Results as given in the supplement of paper PMC10126150.
Sequences with one replicate were seen in a single cluster, so their values are uncertain.

test system: ATP; assay: switch fluorescence ratio, 500 uM ATP over buffer (Cy3 cluster intensity, sum of 5 cycles each) (fold (ratio)); higher = stronger signal-on switching upon ATP binding; sequences stand for … in TCGTCGGCAGCGTCAGATGTGTATAAGAGACAGTTTTTTTTTTTTTTTTTTTTTTTTT…TC; settings: aptamer strand: ATP DNA aptamer (quencher-CACCTGGGGGAGTATTGCGGAGGAAGG + anchor), 100 nM annealed; ATP concentration: 500 uM; one replicate
Outline: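 Clusters with intensities outside 100-1000 RFU were excluded. The remaining Cy3-labelled switching-strand clusters on a modified Illumina MiSeq flow-cell had been annealed to 100 nM quencher-labelled ATP aptamer and imaged in selection buffer, then after 15 min with 500 uM ATP at 22 °C, for five cycles separated by NaOH stripping and re-annealing. The fluorescence ratio, averaged per switch-domain sequence, is each cluster's summed target-cycle Cy3 intensity over its summed buffer-cycle Cy3 intensity.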
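Further: ATP exposure 15 min at 22 °C before imaging.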

Row | Sequence | switch fluorescence ratio
1 | AGGTACCTGA | 1.04
2 | AGGTACTTTG | 0.964
3 | AGGTAGTGCG | 0.955
4 | AGGTATCAAG | 1.04
5 | AGGTCATATC | 1.02
6 | AGGTCCGAGA | 1.03
7 | AGGTCCGGGA | 0.955
8 | AGGTCCTATG | 1.06
9 | AGGTCGACC | 0.981
10 | AGGTCTAGTA | 0.953
11 | AGGTCTAGTG | 0.982
12 | AGGTGAACCG | 0.999
13 | AGGTGAGCAA | 1.31
14 | AGGTGATGTA | 0.989
15 | AGGTGGACCC | 0.991
16 | AGGTGGAGA | 0.984
17 | AGGTGGAGCG | 0.982
18 | AGGTGGCAAG | 0.951
19 | AGGTGGCACT | 0.959
20 | AGGTGGGGC | 1.06
21 | AGGTGGGGCG | 1.08
22 | AGGTTAAGGC | 1.01
23 | AGGTTATAAT | 0.946
24 | AGGTTCCGCA | 1.53
25 | AGGTTCTCAT | 0.964
26 | AGGTTGAGGC | 1

Row | Sequence | switch fluorescence ratio
27 | AGGTTGCCA | 1.05
28 | AGGTTGCCCA | 1.03
29 | AGGTTGCTT | 0.991
30 | AGGTTTCAT | 0.994
31 | AGGTTTGAGG | 0.981
32 | AGGTTTGGCC | 0.999
33 | AGGTTTGTAA | 0.976
34 | AGGTTTTCAT | 1.03
35 | AGTAAACGCA | 1.07
36 | AGTAAAGCGT | 0.955
37 | AGTAAAGGC | 1
38 | AGTAAATTG | 0.943
39 | AGTAACGACG | 0.938
40 | AGTAACTGAT | 1.03
41 | AGTAACTGT | 0.987
42 | AGTAAGGGCC | 1.04
43 | AGTACATCGC | 1.02
44 | AGTACCCCTT | 1.04
45 | AGTACTACC | 1.13
46 | AGTACTCGA | 1
47 | AGTAGAAGCC | 0.998
48 | AGTAGATGTA | 1.03
49 | AGTAGCAACT | 1.01
50 | AGTAGCGTAG | 1.01
51 | AGTAGGACCA | 1.02
52 | AGTAGGCCGA | 0.972

Row | Sequence | switch fluorescence ratio
53 | AGTAGGTCT | 0.947
54 | AGTAGTAATC | 1.22
55 | AGTAGTCCTG | 1.02
56 | AGTAGTTAAA | 1.01
57 | AGTATACCAC | 1.08
58 | AGTATACGTA | 1.05
59 | AGTATCGAA | 0.981
60 | AGTATCGCGT | 0.966
61 | AGTATCGGGG | 1.04
62 | AGTATCTCTC | 1.03
63 | AGTATGCGGT | 0.99
64 | AGTATGGGA | 0.969
65 | AGTATGTA | 0.971
66 | AGTCACAGGA | 1
67 | AGTCAGCGCG | 0.986
68 | AGTCAGCTGT | 0.953
69 | AGTCAGCTTA | 1.04
70 | AGTCATGAAT | 0.994
71 | AGTCATGCAA | 1.13
72 | AGTCATTGTA | 0.988
73 | AGTCCCACTG | 1.03
74 | AGTCCCCGCT | 1.44
75 | AGTCCCTACA | 0.998
76 | AGTCCGGGCG | 0.998
77 | AGTCCGTTCG | 0.985
78 | AGTCGCTAGG | 0.985

Row | Sequence | switch fluorescence ratio
79 | AGTCGGCTTC | 1.02
80 | AGTCGTCCGG | 0.977
81 | AGTCGTCGGG | 1.05
82 | AGTCTAGATC | 1.02
83 | AGTCTATAAT | 0.979
84 | AGTCTCACAA | 1
85 | AGTCTCCCGT | 1
86 | AGTCTCCGTC | 1.05
87 | AGTCTCTAG | 0.983
88 | AGTCTCTTAG | 0.998
89 | AGTCTGCTAT | 1.06
90 | AGTCTGGCGT | 0.982
91 | AGTCTTAGAG | 0.967
92 | AGTCTTGAGG | 0.984
93 | AGTGAACGCG | 1.02
94 | AGTGAAGGTC | 0.949
95 | AGTGACAGCT | 1.04
96 | AGTGATGCAT | 0.99
97 | AGTGATGGTG | 0.959
98 | AGTGATTAC | 1.06
99 | AGTGATTCTG | 0.971
100 | AGTGATTTTC | 1.01
101 | AGTGCAGGCG | 0.942
102 | AGTGCGCTCT | 0.95
103 | AGTGCTAGGC | 0.991
104 | AGTGGATCGA | 0.979

Row | Sequence | switch fluorescence ratio
105 | AGTGGCACAC | 0.994
106 | AGTGGGCTTA | 1.06
107 | AGTGGGTACG | 1
108 | AGTGGTACTT | 1.01
109 | AGTGGTCTAA | 1
110 | AGTGGTTGC | 0.972
111 | AGTGTCCGAG | 1.02
112 | AGTGTGGAAA | 1.03
113 | AGTGTGGATC | 0.948
114 | AGTGTTCCTG | 0.991
115 | AGTGTTGGCA | 1.02
116 | AGTTAACAGT | 0.979
117 | AGTTAAGTAA | 0.989
118 | AGTTAATGTA | 0.983
119 | AGTTAATGTG | 0.945
120 | AGTTACAAGT | 1.02
121 | AGTTACTAGT | 0.996
122 | AGTTAGACTG | 0.992
123 | AGTTAGCCCG | 0.97
124 | AGTTAGTTGA | 0.994
125 | AGTTATAAT | 1.04
126 | AGTTATTGAC | 1.03
127 | AGTTCAATTA | 0.976
128 | AGTTCACCCT | 1.04
129 | AGTTCACCGG | 1.02
130 | AGTTCATTG | 0.962

Row | Sequence | switch fluorescence ratio
131 | AGTTCCGAGA | 1.06
132 | AGTTCGCCCT | 1.06
133 | AGTTCGTCTA | 0.993
134 | AGTTGACACG | 1.02
135 | AGTTGAGAGC | 1.03
136 | AGTTGAGGAT | 0.993
137 | AGTTGAGGTT | 0.991
138 | AGTTGCGCCG | 0.984
139 | AGTTGCGTGT | 0.99
140 | AGTTGCTGC | 1.05
141 | AGTTGCTTCC | 1.91
142 | AGTTGGATTT | 0.932
143 | AGTTGGTTTG | 0.954
144 | AGTTGTCCCG | 1.01
145 | AGTTGTGATG | 1.04
146 | AGTTGTGCTT | 0.94
147 | AGTTGTGTTG | 1.01
148 | AGTTGTTTAC | 0.983
149 | AGTTTAAATT | 1.01
150 | AGTTTAATCT | 1.02
151 | AGTTTACAT | 1.01
152 | AGTTTACGTT | 0.986
153 | AGTTTATTCG | 0.973
154 | AGTTTCGTGG | 1.03
155 | AGTTTGGTG | 0.96
156 | AGTTTGTAAG | 1.01

Row | Sequence | switch fluorescence ratio
157 | AGTTTGTCGG | 0.995
158 | AGTTTTATCT | 0.956
159 | AGTTTTCCG | 0.972
160 | ATAAAAATT | 1.01
161 | ATAAAATAGC | 0.971
162 | ATAAACGGT | 0.979
163 | ATAAACGTCG | 0.968
164 | ATAAAGCACA | 1.14
165 | ATAAAGCCAG | 0.935
166 | ATAAAGCGGG | 1
167 | ATAAAGGATG | 0.985
168 | ATAAAGGCCT | 1.03
169 | ATAAATACAC | 1.05
170 | ATAAATATCT | 1.03
171 | ATAAATCAAT | 1.01
172 | ATAAATTGTG | 0.985
173 | ATAACAACCA | 1.07
174 | ATAACACGGT | 0.975
175 | ATAACCGGCA | 1.07
176 | ATAACCGGCG | 1.05
177 | ATAACGTTTC | 1.11
178 | ATAACTTAGT | 0.986
179 | ATAAGACTCA | 1.01
180 | ATAAGATCGT | 1.02
181 | ATAAGCTGTT | 0.959
182 | ATAAGGATCA | 0.99

Row | Sequence | switch fluorescence ratio
183 | ATAAGGCACG | 1.12
184 | ATAAGGGTGA | 0.959
185 | ATAAGGTAAA | 0.996
186 | ATAAGGTGGG | 0.994
187 | ATAAGTTGGA | 1.04
188 | ATAAGTTGTG | 1.04
189 | ATAATAACGC | 1.02
190 | ATAATCATCC | 0.997
191 | ATAATCGCGG | 0.967
192 | ATAATGGAAA | 0.967
193 | ATAATGTTCT | 0.994
194 | ATAATTTCGC | 0.968
195 | ATAATTTTAA | 0.996
196 | ATACAAGCTA | 1.02
197 | ATACAAGTTT | 1.04
198 | ATACACGCGT | 1
199 | ATACACTATT | 1.07
200 | ATACAGAGA | 1
201 | ATACAGCATC | 1.08
